PubChem BioAssay AID445 (National Center for Advancing Translational Sciences (NCATS), 2006)
Hit rate of the full screen: of about 110,000 compounds, about 40 (0.04%) were called active. The inconclusive results got no clear call from the source; some entries with a clear call stand among them for comparison. Calls follow the shape of the dose curve; as a rule, active = well fitted curve in the direction sought with a large enough effect in the signal ratio (not every such curve was filed as active); inconclusive = small, poorly fitted or top-dose-only effect, or a change in a side signal; inactive = flat fitted curve, though single readings scatter; the % refers to the signal ratio. Where the call is inconclusive, the potency comes from a doubtful curve fit.

Assay: IkB Signaling;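 as to IkBa stabilization activation: 0% = basal untreated cells and 100% = reference inhibitor full response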
Settings: ABC-DLBCL IkBa-CBG/CBR dual luciferase ratio (green luciferase fused to IkBa over red control in OCI-Ly3 lymphoma cells), 4 h; IkBa stabilization activation: at 57.1 µM (top of the series), scaled: untreated 0%, proteasome inhibitor 100% unless noted
How it was run: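 Luminescence ratio of IκBα-fused green versus native red beetle luciferase in OCI-Ly3 cells, 4 h post-doxycycline with compound; red signal alone, scaled from basal (0%) to zero light (-100%), flagged nonspecific or cytotoxic effects.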
Potency is read from the fitted curve at half-maximal effect.

Compound: N#C/C(=C\C1CC=CCC1)c1nc2ccccc2[nH]1 (configuration not stated)
- IkBa stabilization activation: inactive

Compound: CS(=O)(=O)N(CC(O)Cn1c2ccccc2c2ccccc21)c1ccccc1 (configuration not stated)
- IkBa stabilization activation: inconclusive: 4.34% [signal inhibitor]

Compound: O=C(Oc1cccc(N2C(=O)CCC2=O)c1)C1CC(=O)N(c2ccc(Br)cc2)C1 (configuration not stated)
- IkBa stabilization activation: inactive

Compound: O=C(c1cc2nc(-c3ccco3)cc(C(F)(F)F)n2n1)N1CCN(c2ccccc2)CC1
- IkBa stabilization activation: inactive

Compound: CCSc1nc2c([nH]c3ccccc32)c(=O)n1CC
- IkBa stabilization activation: inactive

Compound: O=C(NCc1ccccc1Cl)c1cc2c(s1)-c1ccc(Cl)cc1SC2
- IkBa stabilization activation: inconclusive: -0.848% [signal inhibitor]

Compound: CC(=O)N1CCc2c(sc(NC(=O)CSc3ccccc3)c2-c2nc3ccccc3s2)C1
- IkBa stabilization activation: inconclusive: 1.12% [signal inhibitor]

Compound: O=C(Cn1nnc(-c2ccc3c(c2)OCO3)n1)N1CCOCC1
- IkBa stabilization activation: inactive

Compound: CCOC(=O)CCCSc1nc2sc(C)c(C)c2c(=O)[nH]1
- Potency: inconclusive: 1 µM [signal inhibitor, full curve]

Compound: O=C(COc1ccc(Br)cc1CO)Nc1ccc(F)cc1
- IkBa stabilization activation: inconclusive: 3.04% [signal inhibitor]

Compound: CCOc1cc(C(=O)NCCc2sc(-c3ccc(F)cc3)nc2C)cc(OCC)c1OCC
- IkBa stabilization activation: inactive

Compound: Cc1nc2ccc(S(=O)(=O)N(CC(=O)Nc3ccc(F)cc3F)Cc3ccccc3)cc2s1
- IkBa stabilization activation: inconclusive: 9.88% [signal inhibitor]

Compound: NC(=O)c1sc2nc(N3CCCCC3)c3c(c2c1N)CCCC3
- IkBa stabilization activation: inconclusive: -0.167% [signal inhibitor]

Compound: CCOc1ccc(NC(=O)c2ccc3[nH]c(C)c(C)c3c2)cc1
- IkBa stabilization activation: inconclusive: 5.97% [signal inhibitor]

Compound: O=S(=O)(NCCc1csc(-c2ccccc2)n1)c1ccc2c(c1)OCCO2
- IkBa stabilization activation: inconclusive: 1.44% [signal inhibitor]

Compound: Cc1ccc(S(=O)(=O)Nc2cccc(-c3cn4cccc(C)c4n3)c2)c(C)c1
- IkBa stabilization activation: inconclusive: 8.48% [signal inhibitor]

Compound: Cc1ccccc1NC(=O)Cn1cc(C(=O)c2cccs2)c2ccccc21
- IkBa stabilization activation: inconclusive: 1.15% [signal inhibitor]

Compound: CCc1ccc(NC(=O)CSC2=Nc3ccccc3C3=NC(CCC(=O)NCc4ccccc4)C(=O)N23)cc1 (configuration not stated)
- IkBa stabilization activation: inconclusive: 0.762% [signal inhibitor]

Compound: O=C(Cn1ccc2cc(S(=O)(=O)N3CCCCC3)ccc21)NCCc1ccccc1Cl
- IkBa stabilization activation: inactive

Compound: CCCCC(=O)OC1=C(C(=O)c2ccccc2)N(CCC)S(=O)(=O)c2ccccc21
- IkBa stabilization activation: inconclusive: 3.97% [signal inhibitor]

Compound: CC(NC(=O)CSc1n[nH]c(-c2ccccc2Cl)n1)c1nc2ccccc2[nH]1 (configuration not stated)
- IkBa stabilization activation: inconclusive: -0.268% [signal inhibitor]

Compound: Cc1ccsc1CN1CCc2nc(Nc3ccccc3)ncc2C1
- IkBa stabilization activation: inconclusive: 1% [signal inhibitor]

Compound: O=C1CCCc2cc(S(=O)(=O)N3CCCC(C(=O)NCc4ccccc4)C3)ccc2N1 (configuration not stated)
- IkBa stabilization activation: inconclusive: 0.452% [signal inhibitor]

Compound: COc1cc2c(cc1OC)n(Cc1cccc(C(F)(F)F)c1)c(=O)n1nc(-c3ccccc3)nc21
- IkBa stabilization activation: inactive

Compound: CC(C)(C)n1ncc2c(=O)n(CC(=O)c3ccc(Cl)cc3)cnc21
- IkBa stabilization activation: inactive

Compound: CCOc1ccc(C(=O)Nc2cccc(-c3nc4cccnc4o3)c2)cc1Cl
- IkBa stabilization activation: inconclusive: 2.22% [signal inhibitor]

Compound: COc1cccc(NC(=O)CCNS(=O)(=O)c2ccc3c(c2)oc(=O)n3C)c1
- IkBa stabilization activation: inconclusive: 2.68% [signal inhibitor]

Compound: Cc1cc(C)c2c(=O)n(CC(=O)NCCCN3CCN(c4ccccc4F)CC3)sc2n1
- IkBa stabilization activation: inconclusive: 4.91% [signal inhibitor]

Compound: CCOc1ccc(NS(=O)(=O)c2cc3c(cc2Cl)NC(=O)CO3)cc1
- IkBa stabilization activation: inconclusive: -1.08% [signal inhibitor]

Compound: COc1cccc(Cn2c(=O)c(CCc3ccccc3)nc3cnc(N4CCOCC4)nc32)c1
- IkBa stabilization activation: inactive: 3.1% [at 11.4 µM, scaled: untreated 0%, proteasome inhibitor 100%]

Compound: Cc1cc(C)c(NC(=O)CCS(=O)(=O)c2cc3c(cc2Cl)NC(=O)CO3)c(C)c1
- IkBa stabilization activation: inconclusive: 1.36% [signal inhibitor]

Compound: O=C(CSCn1nnc2c(=O)[nH]c(Cc3ccc(F)cc3)nc21)Nc1cccc(C(F)(F)F)c1
- IkBa stabilization activation: inconclusive: 1.07% [signal inhibitor]

Compound: CCOc1ccc(N(C)S(=O)(=O)c2ccc3c(c2)CCCN3C(C)=O)cc1
- IkBa stabilization activation: inactive

Compound: COc1cc2c(cc1OC)C(COc1cccc(C(F)(F)F)c1)N(C(=O)c1ccc(S(=O)(=O)N3CCCC3)cc1)CC2 (configuration not stated)
- IkBa stabilization activation: inconclusive: 1.62% [signal inhibitor]

Compound: CCOC(=O)c1ccc(NC(=O)N2CCc3ccccc32)cc1
- IkBa stabilization activation: inactive

Compound: O=C(Nc1ccc2c(c1)oc1ccccc12)c1ccc(Br)o1
- Potency: inconclusive: 15.8 µM [signal inhibitor, partial curve]

Compound: Cc1ccc(CCNC(=O)CS(=O)Cc2nc(-c3ccccc3Cl)oc2C)cc1 (configuration not stated)
- IkBa stabilization activation: inconclusive: 0.806% [signal inhibitor]
